Experimental data: ChEMBL document CHEMBL1201862, “PubChem BioAssay data set” (2004)
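Assay format: 96-well plates, 48-hour exposure. The concentration for 50% growth inhibition is given as GI50.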 Activity calls are given as the source filed them. Cut-off read from the data, not from the text of the source: active = GI50 up to about 1.1 µM and inactive = higher.

The compounds below were run on NCI-H322M (assay: DTP human tumour cell line panel, 48 h).

| Compound | GI50 |
| --- | --- |
| COC(=O)C(Cc1nc2ccccc2nc1O)C(=O)C(=O)Nc1cc(C(F)(F)F)ccc1Cl (stereo not given) | inactive: 15.5 µM |
| CC(C)=CCC[C@@H](C)c1c2ncc[nH]c-2c(C)c(=O)c1O | inactive: 26.3 µM |
| CCNc1ccc2c(c1)Cc1ccccc1-2 | inactive: > 100 µM |
| O=C(CC(=O)n1nc(-c2ccccc2)c(/N=N/c2ccccc2Cl)c1-c1ccccc1)Nc1ccc(Cl)cc1 | inactive: > 100 µM |
| COc1cc(OC)c2c(=O)c3cccc([N+](=O)[O-])c3n(C)c2c1 | inactive: > 100 µM |
| O=C(C(=O)n1ccc2ccccc21)c1c[nH]c2ccccc12 | inactive: > 10 µM |
| CC/C=C\C/C=C\C/C=C\CCCCCCCC(=O)OC(COC(=O)CCCCCCCCCCCCCCCCC)COC1OC(CO)C(O)C(O)C1O (stereo not given) | inactive: > 25 µM |
| O=C(N/N=C/c1ccc(Cl)cc1)c1c(Cl)c(Cl)c(Cl)c(Cl)c1-c1nc2ccccc2[nH]1 | inactive: > 100 µM |
| CC(C)c1c(O)ccc2c1CCC1C(C)(C)CCCC21C (stereo not given) | inactive: 18 µM |
| CC(C)CNC(=O)Cn1c2c(c3ccccc31)CCCC2 | inactive: 35.7 µM |
| O=C1C(Br)=C(Br)C(=O)c2c(O)ccc(O)c21 | inactive: 21.2 µM |
| CN(C)CCNc1nc2c(no[n+]2[O-])c2ccccc12.[O-][Cl+3]([O-])([O-])O | inactive: 21.9 µM |
| N#CCc1cccc(CC#N)c1Br | inactive: > 100 µM |
| CCN(CC)c1c(C(=O)/C=C/c2ccc(OC)cc2)c(-c2ccccc2)nn(C)c1=O | inactive: 16.9 µM |
| N#Cc1c(-c2ccc(Cl)cc2)c(C#N)c(=O)n(NS(=O)(=O)c2ccccc2)c1S | inactive: > 100 µM |
| CC[C@H](C)C1=C(OC(C)=O)[N@+]2([O-])Oc3ccc(-c4c(O)c(O)c(-c5ccc(OC(C)=O)cc5)c(OC(C)=O)c4OC(C)=O)cc3O[C@]2([C@@H](C)CC)C(=O)N1O | inactive: 41.6 µM |
| COc1ccc(/N=N/c2ccc3oc(=O)c(C(=O)Nc4ccc(OC)cc4)cc3c2)cc1 | inactive: 18.9 µM |
| CC1/C(=N/O)CC(c2ccccc2)N(N=O)C1c1ccccc1 (stereo not given) | inactive: > 100 µM |
| CC1OC(OC2C(O[C@H]3CC[C@@]4(C)C(=CC[C@H]5[C@@H]6C[C@@H]7O[C@]8(CC[C@@H](C)CO8)[C@@H](C)[C@@H]7[C@@]6(C)CC[C@@H]54)C3)OC(CO)C(OC3OC(CO)C(O)C3O)C2O)C(O)C(O)C1O (stereo not given in full) | active: 1 µM |
| Nc1nc(SCc2ccc([N+](=O)[O-])cc2)nc2c1ncn2C1OC(COP(=O)(O)O)C(O)C1O (stereo not given) | inactive: > 100 µM |
| CC(=O)O[C@H]1CC[C@@]2(C)C(=C[C@H](c3ccc(O)cc3)[C@H]3[C@@H]4CC[C@H](OC(C)=O)[C@@]4(C)CC[C@@H]32)C1 | inactive: 17.3 µM |
| O=C1N(c2ccccc2)C(=O)C2(SC=NN2Cc2ccccc2)N1c1ccccc1 (stereo not given) | inactive: > 100 µM |
| CCN(CC)CCCN1CCc2c([nH]c3ccccc23)C1c1cccnc1 (stereo not given) | inactive: > 100 µM |

| Compound | GI50 |
| --- | --- |
| Nc1cccc(C2CCCc3c2[nH]c2ccccc32)c1 (stereo not given) | inactive: 19.4 µM |
| C[N+](C)(N)Cc1csc(-c2ccc(Cl)cc2)n1 | inactive: > 100 µM |
| CN1CC[C@@H](c2c(O)cc(O)c3c(=O)cc(-c4ccccc4Cl)oc23)[C@@H](O)C1 | active: 0.0553 µM |
| OCC(O)C(O)C(O)c1nn(-c2ccccc2)c2nc3cc(Cl)c(Cl)cc3nc12 (stereo not given) | inactive: > 100 µM |
| O=C1C=CC[C@H](/C=C/C[C@@H](O)C[C@H](O)/C=C/c2ccccc2)O1 | inactive: 7.67 µM |
| Cc1cc(O)nc(NN2C(Cl)C(=O)C2c2ccco2)n1 (stereo not given) | inactive: 35.9 µM |
| Cc1ccccc1C(=O)NC(O)(C(F)(F)F)C(F)(F)F | inactive: > 100 µM |
| CC(=O)NC(Cc1ccccc1)C(=S)N1CCCC1 (stereo not given) | inactive: > 100 µM |
| NNC(=O)c1cccc2c1Oc1ccccc1S2 | inactive: > 100 µM |
| CC1(C)OCC(C2OC(OC(=O)c3ccc([N+](=O)[O-])cc3)C3OC(C)(C)OC23)O1 (stereo not given) | inactive: > 100 µM |
| CCN(CC)c1ccc2cc(C(N)=O)/c(=N/c3ccc(F)cc3)oc2c1 | inactive: 4.55 µM |
| O=C(c1ccccc1)c1ccc(-n2c3ccccc3c3ccc4c(c32)C(=O)C=CC4=O)cc1 | inactive: 20 µM |
| O=C(/C(=N/Nc1ccccc1)c1ccc([N+](=O)[O-])cc1)c1ccc([N+](=O)[O-])cc1 | inactive: > 100 µM |
| Cc1cc(Cl)ccc1N1C(=O)C(=O)C(c2nc3ccccc3s2)/C(=N\NC(=O)c2ccccc2O)C1=O (stereo not given) | inactive: > 100 µM |
| COc1ccc2cc3c4cc(OC)c(OC)cc4ccn3c2c1 | inactive: > 100 µM |
| O=C(O)C1=NN(c2ccc(S(=O)(=O)O)cc2)C2(C1)SCC(=O)N2c1nc2ccccc2s1 (stereo not given) | inactive: > 100 µM |
| COc1ccc(N[C@@H]2c3cc4c(cc3C(c3cc(OC)c(O)c(OC)c3)[C@H]3C(=O)OCC32)OCO4)cc1OC (stereo not given in full) | inactive: > 34 µM |
| CC(=O)O[C@]1(C)CCC2C(C)C(=O)OC2C2C(C)[C@@H](O)CC21 (stereo not given in full) | inactive: 46.2 µM |
| CCOC(=O)c1ccc(N[C@@H]2c3cc4c(cc3C(c3cc(OC)c(O)c(OC)c3)[C@H]3C(=O)OCC32)OCO4)cc1O (stereo not given in full) | inactive: 2.2 µM |
| C[C@@]12CCCC(=O)N1[C@@H](CO)C(c1ccccc1)O2 (stereo not given in full) | inactive: > 100 µM |
| C=COC(=O)N[C@H]1CCc2cc(OC)c(OC)c(OC)c2-c2ccc(SC)c(=O)cc21 | active: < 0.01 µM |
| O=C(CCc1ccc(O)cc1)c1c(O)cc(O)cc1OC1OC(CO)C(O)C(O)C1O (stereo not given) | inactive: > 100 µM |
